Results taken from PubChem BioAssay AID588342 (National Center for Advancing Translational Sciences (NCATS), 2011).
Out of some 360,000 compounds screened, about 25,000 (6.9%) were called active. The shares of active, inactive and inconclusive entries below differ from those in the screen. The call rests on the fitted dose curve; in most records, active means well fitted inhibition curve with a large enough effect; inconclusive means small, poorly fitted or top-dose-only effect; inactive means flat fitted curve, though single readings scatter. Where the call is inconclusive, the potency comes from a doubtful curve fit.

Molecular target: Luciferin 4-monooxygenase (Photinus pyralis) (UniProt P08659)
Chain of UniProt P08659 (P08659 whole entry, looked up): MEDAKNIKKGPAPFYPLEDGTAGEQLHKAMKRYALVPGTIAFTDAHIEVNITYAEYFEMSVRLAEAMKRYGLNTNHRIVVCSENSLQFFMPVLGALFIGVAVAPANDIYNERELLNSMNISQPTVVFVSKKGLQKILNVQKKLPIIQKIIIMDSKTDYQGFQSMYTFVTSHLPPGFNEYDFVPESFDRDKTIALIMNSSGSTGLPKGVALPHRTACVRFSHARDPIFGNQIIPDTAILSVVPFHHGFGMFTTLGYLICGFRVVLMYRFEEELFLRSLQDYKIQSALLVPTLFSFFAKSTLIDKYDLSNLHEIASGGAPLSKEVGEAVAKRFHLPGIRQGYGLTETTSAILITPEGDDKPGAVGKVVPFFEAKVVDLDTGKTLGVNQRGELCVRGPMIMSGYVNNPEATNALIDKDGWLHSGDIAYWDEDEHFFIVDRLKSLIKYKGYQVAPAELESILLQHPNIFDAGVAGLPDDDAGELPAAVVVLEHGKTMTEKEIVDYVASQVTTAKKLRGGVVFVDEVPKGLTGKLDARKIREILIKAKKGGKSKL
Assay: qHTS profiling assay for firefly luciferase inhibitor/activator using purifed enzyme and Km concentrations of substrates (counterscreen for miR-21 project); further: nearly all actives have a fitted effect of over 55% in size;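 on activity change, negative = inhibition: plate controls were vehicle for no effect and reference inhibitor for full effect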
Settings: purified FLuc, luminescence inhibition; series mostly up to 57.5 µM; activity change, negative = inhibition: at the top concentration
In short: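 Purified P. pyralis luciferase, 10 nM final, with Km-level 10 uM D-luciferin and 10 uM ATP in 50 mM Tris acetate pH 7.5, 10 mM Mg acetate, 0.01% Tween-20, 0.05% BSA; 6-point qHTS titration about 60 µM downward; luminescence read.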
Potency means the concentration at half of the fitted maximal effect; tags describe the fitted curve by direction and shape.

Row | SMILES | Potency | activity change, negative = inhibition
1 | Clc1cccc(/C=N\Nc2nccs2)c1 | active: 13.5 µM | 
2 | O=C1NC(=O)C(=Cc2ccc(SC3CCCCC3)o2)C(=O)N1 | inconclusive: 16.9 µM [inhibitor, partial curve] | 
3 | CCCCOc1ccc(C(=O)NCCc2csc(-c3ccc(OC)cc3)n2)cc1 | inconclusive: 13.5 µM [inhibitor, partial curve] | 
4 | COc1ccc(CN2C(=O)NC(=O)/C(=C/c3ccoc3)C2=O)cc1 | inconclusive: 37.9 µM [inhibitor, single point] | 
5 | COc1ccc(C[C@@H]2c3cc(O)c(OC)cc3CCN2C)cc1O |  | inactive: 0.5%
6 | CC(C)c1nnc(NC(=O)c2cccc(-n3cnnn3)c2)s1 | inconclusive: 23.9 µM [inhibitor, single point] | 
7 | CN1CCN(c2ccc(N)c(N3CCN(C)CC3)c2)CC1 |  | inactive: -1.35%
8 | O=C1NC(=O)N(c2ccc(F)cc2)C(=O)/C1=C/c1ccc(N2CCOCC2)cc1 | inconclusive: 23.9 µM [inhibitor, single point] | 
9 | O=C(Nc1ccc(Cl)cc1)O/N=C(\c1ccccc1)c1ccccn1 | inconclusive: 26.9 µM [inhibitor, single point] | 
10 | O=C(CCC1CCCC1)c1c(O)c2ccccc2oc1=O | inconclusive: 37.9 µM [inhibitor, single point] | 
11 | O=C(CN1C(=O)COc2ccccc21)N1CCC2(CC1)OCCO2 |  | inactive: -0.815%
12 | O=c1c2ccccc2nc(/C=C/c2ccc(O)c(O)c2)n1-c1ccccc1 | inconclusive: 30.1 µM [inhibitor, partial curve, poor fit] | 
13 | CC/C(=C\C=C\[C@@H]1C=C[C@@H]2CCC[C@H]2[C@@H]1C(=O)c1ccc[nH]1)[C@@H]1O[C@@H]([C@@H](C)C(=O)O)CC[C@@H]1C | inconclusive: 15.1 µM [inhibitor, partial curve, poor fit] | 
14 | COC(=O)c1ccccc1NC(=O)c1cccn(Cc2cccc(Cl)c2)c1=O | inconclusive: 30.1 µM [inhibitor, partial curve, poor fit] | 
15 | c1csc(-c2nnc(Cc3cccc4ccccc34)o2)c1 | inconclusive: 26.9 µM [inhibitor, single point] | 
16 | C=CCN1C(=O)NC(=O)/C(=C/c2ccc(OC)c(COc3ccc(NC(C)=O)cc3)c2)C1=O | inconclusive: 30.1 µM [inhibitor, partial curve, poor fit] | 
17 | Cc1cc(C=C2C(=O)N(C)C(=O)N(C)C2=O)c(C)n1-c1ccccc1 | inconclusive: 0.757 µM [inhibitor, full curve] | 
18 | NS(=O)(=O)c1ccc(-c2ccc(C=C3C(=O)NC(=S)NC3=O)o2)cc1 | inconclusive: 15.1 µM [inhibitor, partial curve] | 
19 | Cc1ccc(Sc2ccc(C=C3C(=O)N(C)C(=O)N(C)C3=O)o2)cc1 | active: 15.1 µM | 
20 | O=C1CC(c2ccc(C(F)(F)F)cc2)c2c(c3ccccc3oc2=O)O1 (stereo not drawn) | inconclusive: 10.7 µM [inhibitor, partial curve, poor fit] | 
21 | Cc1ccccc1-n1c(O)c(/C=C2/C(c3ccccc3)=Nc3ccccc32)c(=O)[nH]c1=O | inconclusive: 23.9 µM [inhibitor, partial curve] | 

Row | SMILES | Potency | activity change, negative = inhibition
22 | Cc1cc(N2CCOCC2)ccc1/C=C1\C(=O)NC(=O)N(c2ccccc2)C1=O | inconclusive: 26.9 µM [inhibitor, single point] | 
23 | O=C(Nc1ccc2c(c1)OCCO2)c1cccn(Cc2ccccc2)c1=O | active: 10.7 µM | 
24 | Cc1cc(C)cc(N2C(=O)NC(=O)/C(=C\C=C\c3ccco3)C2=O)c1 | inconclusive: 16.9 µM [inhibitor, partial curve, poor fit] | 
25 | CN1C(=O)/C(=C\c2ccc(Br)s2)C(=O)NC1=S | inconclusive: 12 µM [inhibitor, partial curve] | 
26 | NC(Cc1ccccc1)c1nc2ccccc2[nH]1 (stereo not drawn) | inconclusive: 37.9 µM [inhibitor, partial curve, poor fit] | 
27 | COc1ccc(OC(=O)Nc2ccccc2)cc1 | inconclusive: 23.9 µM [inhibitor, single point] | 
28 | Cc1cc(N2CCCCC2)nc2ccc(NC(=O)CCC(=O)N3CCN(c4cccc(Cl)c4)CC3)cc12 | inconclusive: 7.57 µM [inhibitor, partial curve, poor fit] | 
29 | CCOc1ccc(-n2c(O)c(C=Nc3ccc(N(CC)CC)cc3)c(=O)[nH]c2=O)cc1 | inconclusive: 15.1 µM [inhibitor, partial curve, poor fit] | 
30 | CN(C)C(Cc1ccccc1)C(=O)c1cccs1 (stereo not drawn) | inconclusive: 23.9 µM [inhibitor, single point] | 
31 | COc1ccc(Nc2nc(N)nc(CSc3nc4ccccc4s3)n2)cc1 | inconclusive: 19 µM [inhibitor, partial curve, poor fit] | 
32 | CCOc1ccc2nc(NC(=O)c3cccn(Cc4ccc(C)cc4)c3=O)sc2c1 |  | inactive: -5.51%
33 | Cc1cc(C)cc(NC(=S)NC2CC3CCCC(C2)N3Cc2cccs2)c1 (stereo not drawn) |  | inactive: -1.54%
34 | O=C(Nc1ccc2c(c1)OCO2)c1cn(Cc2ccc(F)cc2)nn1 | inconclusive: 16.9 µM [inhibitor, single point] | 
35 | Cc1c(C(=O)Nc2ccccc2)c2cc(O)ccc2n1Cc1ccccc1 | inconclusive: 37.9 µM [inhibitor, single point] | 
36 | COc1cc(/C=C2/C(=O)NC(=O)N(c3ccc(C)cc3)C2=O)cc(OC)c1OC | inconclusive: 37.9 µM [inhibitor, partial curve, poor fit] | 
37 | c1ccc(CNc2c3c(nc4ccccc24)CCC3)cc1 | inconclusive: 26.9 µM [inhibitor, single point] | 
38 | CCNc1nc2[nH]c(=O)c3c(c2s1)OC(N)=C(C#N)C3c1cccs1 (stereo not drawn) | inconclusive: 10.7 µM [inhibitor, partial curve] | 
39 | O=C1NC(=S)N(c2ccccc2)C(=O)C1C(c1ccncc1)C1C(=O)NC(=S)N(c2ccccc2)C1=O (stereo not drawn) | inconclusive: 37.9 µM [inhibitor, partial curve, poor fit] | 
40 | O=C(Cc1coc2cc3c(cc12)CCC3)OCC(=O)N1CCCC1=O | inconclusive: 26.9 µM [inhibitor, single point] | 
41 | CN(C)c1ccc(/C=C/C=C/c2sc3ccccc3[n+]2C)cc1 | inconclusive: 37.9 µM [inhibitor, partial curve, poor fit] | 
42 | Cc1ccc(N2C(=O)NC(=O)/C(=C/c3ccoc3)C2=O)cc1 | inconclusive: 23.9 µM [inhibitor, partial curve, poor fit] | 

Row | SMILES | Potency | activity change, negative = inhibition
43 | COc1ccc(/C=C2\C(=O)NC(=S)N(C)C2=O)cc1C | inconclusive: 26.9 µM [inhibitor, single point] | 
44 | CCOc1ccccc1Oc1coc2cc(OC(=O)N(C)C)ccc2c1=O | inconclusive: 23.9 µM [inhibitor, partial curve, poor fit] | 
45 | COc1ccccc1N1CCN(Cc2ccc(Br)cc2)CC1 | inconclusive: 37.9 µM [inhibitor, partial curve, poor fit] | 
46 | CC(=O)c1ccc(OC(=O)N(C)c2ccccc2)cc1 |  | inactive: -17.7%
47 | CCc1ccc(-n2nc(C)c3c2NC(=O)CSC3c2ccccc2C)cc1 (stereo not drawn) |  | inactive: -13.2%
48 | O=C(Oc1ccc2ccc(OC(=O)N3CCOCC3)cc2c1)N1CCOCC1 | inconclusive: 23.9 µM [inhibitor, partial curve, poor fit] | 
49 | O=C1NC(=O)C(=Cc2ccc3c(c2)OCO3)C(=O)N1 | inconclusive: 15.1 µM [inhibitor, partial curve] | 
50 | CC(C)(C)c1cc([N+](=O)[O-])cc(C(C)(C)C)c1O | inconclusive: 15.1 µM [inhibitor, partial curve] | 
51 | CC(C)Oc1ccc(C(=O)Nc2ccc3c(c2)CCCN3C(=O)c2cccs2)cc1 | inconclusive: 10.7 µM [inhibitor, partial curve] | 
52 | CCCCCCOC(=O)c1ccccc1N | active: 16.9 µM | 
53 | C=CCN1C(=O)NC(=O)/C(=C/c2ccc(N(C)C)c(Br)c2)C1=O | inconclusive: 37.9 µM [inhibitor, partial curve, poor fit] | 
54 | COc1cc(/C=C/[N+](=O)[O-])ccc1OC(=O)c1cccnc1 | inconclusive: 8.49 µM [inhibitor, partial curve] | 
55 | Oc1cccc2nc3ccccc3nc12 | inconclusive: 16.9 µM [inhibitor, partial curve] | 
56 | COc1ccccc1-n1c(-c2ccc(C)cc2)nc2ccccc2c1=O | active: 13.5 µM | 
57 | Cc1cc(N2CCCCC2)ccc1C=C1C(=O)N(C)C(=S)N(C)C1=O | inconclusive: 26.9 µM [inhibitor, partial curve, poor fit] | 
58 | Cc1cc(OCc2cc(C(=O)O)oc2C)c2c3c(c(=O)oc2c1)CCCC3 | inconclusive: 21.3 µM [inhibitor, partial curve] | 
59 | O=c1c2ccccc2c(C=Nc2ccc(O)cc2)c(O)n1Cc1ccccc1 | inconclusive: 26.9 µM [inhibitor, partial curve, poor fit] | 
60 | O=C1NC(=O)N(Cc2cccs2)C(=O)/C1=C/c1ccc(N2CCOCC2)cc1 | inconclusive: 37.9 µM [inhibitor, single point] | 
61 | Cc1ccc2c(c1)C1CN(C)CCC1N2C(=O)c1cn(-c2ccccc2)nc1-c1ccccc1 (stereo not drawn) | inconclusive: 26.9 µM [inhibitor, partial curve, poor fit] | 
62 | Cc1cc(C(=O)Nc2ccc(CC(=O)O)cc2)c(C)o1 | active: 10.7 µM | 
63 | O=C(Nc1ccc(Cl)cc1)Nc1ccc(Cl)c(Cl)c1 | inconclusive: 8.91 µM [inhibitor, full curve, poor fit] | 
